Laboratory results published in publication PMC3601332, “Human Cytomegalovirus Glycoprotein UL141 Targets the TRAIL Death Receptors to Thwart Host Innate Antiviral Defenses” (Cell Host & Microbe, 2013).

T1: UL141 ectodomain (UL141ecto), His-tagged (human cytomegalovirus (HCMV), UniProt Q6RJQ3 37-278)
T1 construct: also called gpUL141; source: SF9 cells transduced with baculovirus, supernatant
T1 sequence: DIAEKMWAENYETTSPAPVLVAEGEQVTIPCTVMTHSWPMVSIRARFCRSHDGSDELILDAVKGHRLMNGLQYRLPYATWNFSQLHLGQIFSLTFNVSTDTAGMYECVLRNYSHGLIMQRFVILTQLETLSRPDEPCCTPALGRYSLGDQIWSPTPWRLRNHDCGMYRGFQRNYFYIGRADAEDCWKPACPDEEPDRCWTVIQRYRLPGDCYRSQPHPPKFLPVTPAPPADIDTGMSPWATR

B1: TRAIL-R2:Fc (Fc fusion)
chain: not shown
notes: also called DR5; TRAIL-R2 Fc fusion protein
B2: TRAIL-R1:Fc (Fc fusion)
chain: not shown
notes: also called DR4; TRAIL-R1 Fc fusion protein; source: bought: R&D Systems

Molecular target: T1, UL141 ectodomain (UL141ecto), His-tagged
Assay: SPR; Biacore 3000; TRAIL DR Fc fusion proteins immobilised on an anti-human Fc capture chip, UL141ecto as analyte in Biacore running buffer (0.78-50 uM on TRAIL-R1, 0.016-1 uM on TRAIL-R2)
Details: both partners purified

Binder | Kd | koff | kon
B1 | 0.006 µM | 7.2e-05 s⁻¹ | 12000 M⁻¹ s⁻¹
B2 | 2.3 µM | 0.014 s⁻¹ | 6000 M⁻¹ s⁻¹
